# In the supplement of paper PMC8728848:
# The other results are listed elsewhere or left out.
# B1: PV12658A-bvu-496-32-496 (Bacteroides vulgatus) (protein)
# chain: DLDGAITTPAAVELALNGIYYSLPGNGFNVIFPTVSGSFKAGTMWRQEIVSAGNAVYYSERMLPTLSFSDATEWDADYAVIKNANFLETACNRMSDGEFSGNRRAEVLGEIAYLRALAYFNILVRYCEFWDMNSEYGVVMRNEAPSVSNALKARSSVADSYQYILDQLEIAIEKAPDWKKLSQASKEAAKALKARVLLYAGKYTEAVAAVNDAIDTNSPLPEANYGDVFDKFSTTKEILFARVFDQKDATNTSTRQQCYGNSPTKKQGYWGPTNEYVELVGDDPRADAIFSKVDSLMDSRSSAVAYNLKSVKKLLNDANDMPVIFSRVSELYLIKAEALYRSGASISEAYAPIRKLRERAGAEIILPANNEELETAIFNEWMLELSFENWHEWFAMIRFAGYTEKPDFTRLLALNKTLREALEKEYEKSEAQGDNYYQRIIDRRIDAIPSSEISSNLECKQNPGY
# Columns and labels:
# Assay in all cases: glycan array binding signal (z-score within array); higher = stronger binding
# Details in all cases: glycan notation: IUPAC condensed, linker removed
# Gal(b1-2)Gal = target: Gal(b1-2)Gal
# Outline: (§1)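 Glycan array data were curated from 3228 arrays in the Consortium for Functional Glycomics database and kept only where the protein sequence was available. Glycan names were converted to IUPAC-condensed notation, and columns mapping to the same glycan were averaged. The binding signal is a within-array Z-score, averaged across arrays of the same protein sequence at different concentrations or buffers and across linkers. Negative Z-scores can be read as non-binding.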
# Gal(b1-3)Gal = target: Gal(b1-3)Gal
# Outline: as §1
# Gal(b1-3)Gal(b1-4)GlcNAc = target: Gal(b1-3)Gal(b1-4)GlcNAc
# Outline: as §1
# Gal(b1-3)GalNAc = target: Gal(b1-3)GalNAc
# Outline: as §1
# [1] = target: Gal(b1-3)GalNAc(a1-3)[Fuc(a1-2)]Gal(b1-4)Glc
# Outline: as §1
# [2] = target: Gal(b1-3)GalNAc(a1-3)[Fuc(a1-2)]Gal(b1-4)GlcNAc
# Outline: as §1
# Gal(b1-3)GalNAc(b1-3)Gal = target: Gal(b1-3)GalNAc(b1-3)Gal
# Outline: as §1
# [3] = target: Gal(b1-3)GalNAc(b1-3)Gal(a1-4)Gal(b1-4)Glc
# Outline: as §1
# [4] = target: Gal(b1-3)GalNAc(b1-4)Gal(b1-4)Glc
# Outline: as §1
# [5] = target: Gal(b1-3)GalNAc(b1-4)[Neu5Ac(a2-3)]Gal(b1-4)Glc
# Outline: as §1
# Gal(b1-3)GlcNAc = target: Gal(b1-3)GlcNAc
# Outline: as §1
# [6] = target: Gal(b1-3)GlcNAc(a1-3)Gal(b1-4)GlcNAc
# Outline: as §1
# [7] = target: Gal(b1-3)GlcNAc(a1-6)Gal(b1-4)GlcNAc
# Outline: as §1
# Gal(b1-3)GlcNAc(b1-2)Man = target: Gal(b1-3)GlcNAc(b1-2)Man
# Outline: as §1
# [8] = target: Gal(b1-3)GlcNAc(b1-2)Man(a1-3)[Gal(b1-3)GlcNAc(b1-2)Man(a1-6)]Man(b1-4)GlcNAc(b1-4)GlcNAc
# Outline: as §1
# [9] = target: Gal(b1-3)GlcNAc(b1-2)Man(a1-3)[Gal(b1-3)GlcNAc(b1-2)Man(a1-6)]Man(b1-4)GlcNAc(b1-4)[Fuc(a1-6)]GlcNAc
# Outline: as §1
# [10] = target: Gal(b1-3)GlcNAc(b1-2)Man(a1-3)[GlcNAc(b1-4)][Gal(b1-3)GlcNAc(b1-2)Man(a1-6)]Man(b1-4)GlcNAc(b1-4)GlcNAc
# Outline: as §1
# [11] = target: Gal(b1-3)GlcNAc(b1-2)[Gal(b1-3)GlcNAc(b1-6)]Man(a1-6)[Gal(b1-3)GlcNAc(b1-2)Man(a1-3)]Man(b1-4)GlcNAc(b1-4)GlcNAc
# Outline: as §1
# [12] = target: Gal(b1-3)GlcNAc(b1-3)Gal(b1-3)GlcNAc
# Outline: as §1
# [13] = target: Gal(b1-3)GlcNAc(b1-3)Gal(b1-4)Glc
# Outline: as §1
# [14] = target: Gal(b1-3)GlcNAc(b1-3)Gal(b1-4)GlcNAc
# Outline: as §1
# [15] = target: Gal(b1-3)GlcNAc(b1-3)Gal(b1-4)GlcNAc(b1-2)Man(a1-3)[Gal(b1-3)GlcNAc(b1-3)Gal(b1-4)GlcNAc(b1-2)Man(a1-6)]Man(b1-4)GlcNAc(b1-4)GlcNAc
# Outline: as §1
# [16] = target: Gal(b1-3)GlcNAc(b1-3)Gal(b1-4)GlcNAc(b1-2)[Gal(b1-3)GlcNAc(b1-3)Gal(b1-4)GlcNAc(b1-6)]Man(a1-6)[Gal(b1-3)GlcNAc(b1-3)Gal(b1-4)GlcNAc(b1-2)Man(a1-3)]Man(b1-4)GlcNAc(b1-4)[Fuc(a1-6)]GlcNAc
# Outline: as §1
# [17] = target: Gal(b1-3)GlcNAc(b1-3)Gal(b1-4)GlcNAc(b1-3)Gal(b1-4)GlcNAc(b1-2)[Gal(b1-3)GlcNAc(b1-3)Gal(b1-4)GlcNAc(b1-3)Gal(b1-4)GlcNAc(b1-6)]Man(a1-6)[Gal(b1-3)GlcNAc(b1-3)Gal(b1-4)GlcNAc(b1-3)Gal(b1-4)GlcNAc(b1-2)Man(a1-3)]Man(b1-4)GlcNAc(b1-4)[Fuc(a1-6)]GlcNAc
# Outline: as §1
# [18] = target: Gal(b1-3)GlcNAc(b1-3)Gal(b1-4)GlcNAc(b1-6)[Gal(b1-3)GlcNAc(b1-3)]Gal(b1-4)Glc
# Outline: as §1
# [19] = target: Gal(b1-3)GlcNAc(b1-3)Gal(b1-4)[Fuc(a1-3)]GlcNAc
# Outline: as §1
# [20] = target: Gal(b1-3)GlcNAc(b1-3)Gal(b1-4)[Fuc(a1-3)]GlcNAc(b1-6)[Gal(b1-3)GlcNAc(b1-3)]Gal(b1-4)Glc
# Outline: as §1
# [21] = target: Gal(b1-3)GlcNAc(b1-3)GalNAc
# Outline: as §1
# [22] = target: Gal(b1-3)GlcNAc(b1-6)Gal(b1-4)GlcNAc
# Outline: as §1
# [23] = target: Gal(b1-3)GlcNAc(b1-6)GalNAc
# Outline: as §1
# [24] = target: Gal(b1-3)GlcNAc(b1-6)[Gal(b1-3)]GalNAc
# Outline: as §1
# Gal(b1-3)GlcNAc6S = target: Gal(b1-3)GlcNAc6S
# Outline: as §1
# [25] = target: Gal(b1-3)[Fuc(a1-4)]GlcNAc
# Outline: as §1
# [26] = target: Gal(b1-3)[Fuc(a1-4)]GlcNAc(b1-2)Man
# Outline: as §1
# [27] = target: Gal(b1-3)[Fuc(a1-4)]GlcNAc(b1-2)Man(a1-3)[Gal(b1-3)[Fuc(a1-4)]GlcNAc(b1-2)Man(a1-6)]Man(b1-4)GlcNAc(b1-4)[Fuc(a1-6)]GlcNAc
# Outline: as §1
# [28] = target: Gal(b1-3)[Fuc(a1-4)]GlcNAc(b1-3)Gal(b1-3)[Fuc(a1-4)]GlcNAc
# Outline: as §1
# [29] = target: Gal(b1-3)[Fuc(a1-4)]GlcNAc(b1-3)Gal(b1-4)[Fuc(a1-3)]GlcNAc
# Outline: as §1
binder,measurement,setting,value
B1,glycan array binding signal (z-score),Gal(b1-2)Gal,-0.301
same,glycan array binding signal (z-score),Gal(b1-3)Gal,-0.433
same,glycan array binding signal (z-score),Gal(b1-3)Gal(b1-4)GlcNAc,0.806
same,glycan array binding signal (z-score),Gal(b1-3)GalNAc,-0.376
same,glycan array binding signal (z-score),[1],-0.045
same,glycan array binding signal (z-score),[2],-0.389
same,glycan array binding signal (z-score),Gal(b1-3)GalNAc(b1-3)Gal,-0.547
same,glycan array binding signal (z-score),[3],-0.12
same,glycan array binding signal (z-score),[4],0.963
same,glycan array binding signal (z-score),[5],1.17
same,glycan array binding signal (z-score),Gal(b1-3)GlcNAc,-0.316
same,glycan array binding signal (z-score),[6],-0.456
same,glycan array binding signal (z-score),[7],-0.176
same,glycan array binding signal (z-score),Gal(b1-3)GlcNAc(b1-2)Man,0.552
same,glycan array binding signal (z-score),[8],0.146
same,glycan array binding signal (z-score),[9],-0.422
same,glycan array binding signal (z-score),[10],-0.106
same,glycan array binding signal (z-score),[11],0.707
same,glycan array binding signal (z-score),[12],-0.308
same,glycan array binding signal (z-score),[13],-0.133
same,glycan array binding signal (z-score),[14],-0.185
same,glycan array binding signal (z-score),[15],0.288
same,glycan array binding signal (z-score),[16],6.34
same,glycan array binding signal (z-score),[17],1.57
same,glycan array binding signal (z-score),[18],1.05
same,glycan array binding signal (z-score),[19],-0.533
same,glycan array binding signal (z-score),[20],-0.307
same,glycan array binding signal (z-score),[21],-0.358
same,glycan array binding signal (z-score),[22],-0.021
same,glycan array binding signal (z-score),[23],-0.133
same,glycan array binding signal (z-score),[24],0.719
same,glycan array binding signal (z-score),Gal(b1-3)GlcNAc6S,-0.203
same,glycan array binding signal (z-score),[25],-0.39
same,glycan array binding signal (z-score),[26],-0.193
same,glycan array binding signal (z-score),[27],0.012
same,glycan array binding signal (z-score),[28],-0.354
same,glycan array binding signal (z-score),[29],-0.493
